Laboratory results as given in US20230348569A1.
Values joined by “and” are separate entries in the source; they are usually repeats but may differ in a detail not shown here. Identical values can stand only once. Like-named read-outs stand apart in the source and are kept apart here.

B1: mAb10932 (antibody)
heavy: EVQLVESGGGLVQSGGSLRLSCAASGLTVSSNYMSWVRQAPGKGLEWVSVIYSGGSTFYSDSVKGRFTISRHNSKNTLYLQMNSLRAEDTAVYYCARARGDAFDIWGQGTMVTVSS[human IgG1 constant region left out here]
light: DIQMTQSPSSLSASVGDRVTITCQASQGISNYLNWYQQKPGKAPKLLISDASNLETGVPSRFSGSGSGTDFTFTISSLQPEDIATYYCQQYDNLRFFTFGPGTKVDIKRTVAAPSVFIFPPSDEQLKSGTASVVCLLNNFYPREAKVQWKVDNALQSGNSQESVTEQDSKDSTYSLSSTLTLSKADYEKHKVYACEVTHQGLSSPVTKSFNRGEC
B2: mAb10937 (antibody)
heavy: QITLKESGPTLVKPTQTLTLTCTFSGFSLSTNVVGVGWIRQPPGKALEWLALIYWNDDKRYSPSLKSRLTITKDTSKNQVVLTMTNMDPVDTATYYCAHGPTGDYFDYWGQGTLVTVSS[human IgG1 constant region left out here]
light: [about 100 residues left out here][about 120 residues left out here]

Columns and labels:
[1] = target: T1, SARS-COV-2-S RBD extracellular domain expressed with a C-terminal myc-myc-hexahistidine (SARS-COV-2 RBD-MMH) (SARS-CoV-2); conditions: remark: other sources report otherwise
[2] = target: T1, SARS-COV-2-S RBD extracellular domain …; conditions: remark: other sources report otherwise; remark: listed apart in the source

Row | Binder | t½ [1] [s] | t½ [2]
1 | B1 | 540 | 
2 | B2 |  | 36 s and 42 s
